{"source": "PubChem BioAssay AID504466", "about": "(National Center for Advancing Translational Sciences (NCATS), 2011)", "note": "In all, about 330,000 compounds went through this assay and about 4,200 (1.3%) were called active. The inconclusive results got no clear call from the source; some entries with a clear call stand among them for comparison. Calls come from the whole dose curve; as a rule, active = well fitted activation curve with a large enough effect; inconclusive = small, poorly fitted or top-dose-only effect; inactive = no such curve, though single readings can be large or run the other way. Potencies of inconclusive entries are doubtful fits and often do not repeat. Potency is the fitted concentration of half-maximal effect; tags give direction and shape of the fitted curve.", "data": [{"assay": "qHTS screen for small molecules that induce genotoxicity in human embryonic kidney (HEK293T) cells expressing luciferase-tagged ELG1; note: nearly all actives have a fitted effect of over 60% in size", "conditions": "HEK293T ELG1-luciferase reporter, luminescence, 16 h; series mostly up to 46 µM", "outline": "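HEK293T cells expressing luciferase-tagged ELG1 were exposed to compound or DMSO vehicle for 16 hr at 37 °C and 5% CO2. Luciferase activity was then measured with ONE-Glo after 30 min at room temperature.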", "values": [{"compound": "Cc1nc2c3cc(F)ccc3n(Cc3ccc(F)cc3)c2s1", "Potency": "inactive"}, {"compound": "O=C(NCCCCCCOC1=NS(=O)(=O)c2ccccc21)C(=O)Nc1ccccc1", "Potency": "inconclusive: 6.51 µM [activator, partial curve, poor fit]"}, {"compound": "O=C(Nc1nc2ccccc2[nH]1)c1ccccc1OC(F)F", "Potency": "inconclusive: 0.103 µM [activator, full curve, poor fit]"}, {"compound": "OCCCN=c1cc(-c2ccccc2)oc2ccc(Cl)cc12", "Potency": "inconclusive: 23.1 µM [activator, partial curve]"}, {"compound": "C/C(=N\\Nc1nc2ccccc2[nH]1)c1ccc(Cl)s1", "Potency": "inactive"}, {"compound": "CC(=O)Nc1ccc(Nc2c3ccccc3nc3ccccc23)cc1", "Potency": "active: 13 µM"}, {"compound": "O=C(Oc1ccccc1Cl)c1ccc2c(=O)n3c(nc2c1)CCC3", "Potency": "inconclusive: 16.4 µM [activator, partial curve, poor fit]"}, {"compound": "O=C(O)c1cc(N/N=C/c2ccc3c(c2)OCCO3)ccc1Cl", "Potency": "active: 0.291 µM"}, {"compound": "N#C/C(=C\\c1ccc(OCc2ccc(F)cc2)cc1)C(=O)Nc1cccc(C(=O)O)c1", "Potency": "inconclusive: 18.3 µM [activator, partial curve, poor fit]"}, {"compound": "COc1ccc(/C=N/Nc2ncnc3c2[nH]c2ccccc23)c(OC)c1OC", "Potency": "inactive"}, {"compound": "COc1ccc(CCCC(=O)N/N=C/c2cccc(OC)c2O)cc1C", "Potency": "inconclusive: 29.1 µM [activator, single point]"}, {"compound": "CCOC(=O)C1CCCN(c2ncnc3c2oc2ccccc23)C1", "note": "(stereo unspecified)", "Potency": "inconclusive: 14.6 µM [activator, partial curve]"}, {"compound": "C[C@H]1CN=C2N(CCNC(=O)CCC3CCCCC3)[C@H](Cc3ccc(O)cc3)CN21", "Potency": "inactive"}, {"compound": "COC(=O)c1ccc(NC(=S)NCCc2cccc(C)c2)cc1", "Potency": "inconclusive: 14.6 µM [activator, partial curve]"}, {"compound": "O=C(CSc1nnc(-c2ccco2)n1Cc1ccccc1)c1ccccc1", "Potency": "inconclusive: 11.2 µM [activator, partial curve]"}, {"compound": "Cc1ccc2c(c1)C1(OCCCO1)C(=O)N2CC#N", "Potency": "inactive"}, {"compound": "C[C@H]1CN=C(N(C)C)N1CC1CCC(C(C)(C)C)CC1", "note": "(stereo partly specified)", "Potency": "inactive"}, {"compound": "O=C(Nc1nc(-c2ccc3c(c2)OCO3)cs1)C1CC1", "Potency": "active: 16.4 µM"}, {"compound": "c1nc(CCO[C@H]2CCCCO2)cc2cc3c(cc12)OCO3", "Potency": "inconclusive: 0.73 µM [activator, partial curve]"}, {"compound": "CCc1nnc(NC(=O)/C=C/c2ccc(C)o2)s1", "Potency": "inconclusive: 18.4 µM [activator, partial curve, poor fit]"}, {"compound": "CCN(CC)C(=O)c1ccc(-c2cccs2)s1", "Potency": "inconclusive: 14.6 µM [activator, partial curve]"}]}]}
